# Experimental data: the supplement of paper PMC11417369
# The list shows a part of the results.
# System: PfHDP1 homeodomain (GST-tagged)
# Assay: gcPBM binding intensity (ln(normalized median fluorescence intensity)); higher = stronger DNA binding
# Outline: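 GST-fused DNA-binding domains of P. falciparum, expressed in E. coli, were applied at about 25 μg on average for 1 h to an Agilent 4 × 180k array of primer-extended double-stranded 36-bp intergenic genomic probes and negative controls. Binding intensity is the highest Masliner-normalised natural-log median intensity across replicate spots of either probe orientation, measured with Alexa488 anti-GST antibody and a 488 nm scan.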
row,Sequence,gcPBM binding intensity (ln)
1,TAAAATATAATAAAATGTACACGCATGCAATAGAAT [XGTACX_site7434],7.69
2,ATATATCATAATAGAGGTACACATATTATATATATA [XGTACX_site782],7.63
3,TTTATAAATATATATACACACACATATATATTATAT [CACACA_site8099],7.03
4,ATATTAAATATAATTTGTACGCATTTTTTTTTTTTT [XGTACX_site1910],6.27
5,TTTTTTTTATTAGTGTGTACGCATTTATTTATACAT [XGTACX_site1599],6.97
6,TTTAAATTATGAAATTGTACATATAAAAATATTTTA [XGTACX_site4796],6.21
7,TATATATTATTTAAAACACACAAAAAAAAAAATTAT [CACACA_site89],6.7
8,TTAAAAATATATGAATGTACATATATTTATATATAT [XGTACX_site77],6.6
9,TACTTACCAAAATACACACACACACCCAATATATAA [CACACA_site1871],7.04
10,TTTTTGTATTCTACCTTAACAATCTTAAAGATTTTT [CACACA_negctrl_site1157],6.44
11,TTTTTTTTTTTAAAATGTACACGTAATTACATATAT [XGTACX_site752],6.69
12,TGATGGTTACGTTTATGTACACATTACAGTTAGTAT [XGTACX_site998],6.32
13,AAAATATATTAAGGCACACACATACATATATATATA [CACACA_site3723],8.86
14,GAGTTAATATTTAAAAGTACAAGATGAATGTAAAAA [XGTACX_site5810],6.59
15,ACTACATTATTGCATTGTACTTTTTTTTTTTTTTTA [XGTACX_site4605],6.8
16,TTAAAAATTATATAAGTGCATTAATATTTAGAACAA [GTGCAC_site9773],9.65
17,TATATTGAATGCAAAAGTACATTTGTGTAAATTTAT [XGTACX_site7611],7.22
18,TTTTCATATTATAGTGCACACAAAAATATATATATG [CACACA_site8929],10.3
19,TTATTTAGTATATTATGTACATACAATGCCTGGGAA [XGTACX_site4578],6.87
20,TAAAATATATATATGTGTACATAACATATAATTTTT [XGTACX_site1725],6.24
21,TATTGTTGTTCATGTACACACTATAATAAAAGCAAT [CACACA_site6148],7.02
22,ATATGTTACAGACACACACACACATAAAAAAACAAA [CACACA_site3248],7.18

row,Sequence,gcPBM binding intensity (ln)
1,AGTATAAAAATATATTTACACACTATATATATCGAA [CACACA_site8494],6.57
2,TTTTTTACTTTTGAGACATTTCATATTTTTATTCAC [GTGCAC_negctrl_site730],6.45
3,TGATTGAGTAAAATGGGTACATATACACTATTACAT [XGTACX_site5232],6.14
4,TACAGGAATATTTTTACACACTAAAAATTATAAAAT [CACACA_site1649],6.3
5,AAAGGTTCACATTATATAGTTATGTAATATATATGT [CACACA_negctrl_site542],6.18
6,TTTTTTCTCTGTGGCTGTACTTTGAAGATATTTTAT [XGTACX_site8243],6.99
7,ATATTGTATTTATGTACACACATTTTTGGAATATGA [CACACA_site4861],7.01
8,ATATATATATATATATGTACATATTGTATTAATTAT [XGTACX_site1919],9.2
9,CTCTGTTGTCTTAGTTGTACAATAGAAAAAAATAAT [XGTACX_site7043],6.85
10,TCTTTTAAACAGTACACACACACATCTATATTTATA [CACACA_site6559],7.27
11,ATATATTTATATATTACACACAATATTGTACAGATA [CACACA_site8215],6.96
12,GAAGGAATATACAATTGTACTTGGCAAAAAAAAAAA [XGTACX_site1884],6.38
13,AAAAAAGGAAAAGATACACACCGTAAATTAAAATTT [CACACA_site5908],6.18
14,GTTAAGAATATATAATGTACTTATTTTAATATAGTA [XGTACX_site6088],6.25
15,AAATACTTGTCATATTGTACATGTTTGTGATATATA [XGTACX_site3185],6.39
16,ATAATTTGGAAACACACACACACACCCACATATATA [CACACA_site2286],7.17
17,TGTTTATTTTTAAAAAGTACATATATAAAAAATATC [XGTACX_site4902],6.38
18,TTAAATGAAAAATGGGGTACATATATACAAATATAT [XGTACX_site5931],6.2
19,AAAAAAAAATACTACTGTACTTTTTTTGGACATCTA [XGTACX_site1096],5.87
20,TGATTATACGCACGCGCACACACAACCAAAAAAAAA [CACACA_site3537],8.42
21,AGGTACTTTTTTAAAACACACATATAACATATACAC [CACACA_site6629],6.86
22,ACCCCCAATACGGAAACACACAAGTTATTTTATCAT [CACACA_site8874],7.14
